Test results as given in ChEMBL document CHEMBL4888484, “Replenishing the malaria drug discovery pipeline: Screening and hit evaluation of the MMV Hit Generation Library 1 (HGL1) against asexual blood stage Plasmodium falciparum ,using a nano luciferase reporter read-out” (2022).
In all, about 150,000 compounds went through this assay and about 540 (0.36%) showed an effect of 50% or more. The list shows a part of the results.

System: Plasmodium falciparum
Assay: Primary screen in NF54 nanoGlo assay, in single point, at 2uM, 72h; a lower Z score goes with more inhibition
Type: functional, Erythrocyte
Details: timepoint 72 hour

Compound | % Inhibition [%] | Z score
COC(=O)c1ccc(NC(=O)N2CCC[C@H](c3nnn[nH]3)C2)cc1 | 5 | -0.93
CCC(C)C(NC(=O)c1ccc(Br)cc1)C(=O)Nc1nnc(-c2cccc(Br)c2)s1 (stereo unspecified) | -3 | 0.45
Cc1cc(Cl)cc2c1N(C(=O)CN(C)S(=O)(=O)c1ccccc1)CCC2 | -2 | 0.19
O=C(Nc1ccccc1)OC1CCCC(NS(=O)(=O)c2ccc3c(c2)OCCO3)C1 (stereo unspecified) | -14 | 2.57
Cc1nc(-c2ccccn2)n(Cc2nnnn2-c2ccccc2)n1 | 5 | -0.66
O=C(NCCOc1ccccc1)c1ccc(CN2CCOCC2)cc1 | -10 | 1.38
C[C@]1(c2ccc(S(N)(=O)=O)cc2)NC(=O)N(CC2CCCCC2)C1=O | 2 | -0.27
CN1CC[C@@]2(CCC1=O)CN(C(=O)Nc1ccccc1Cl)CCN2C | -8 | 1.24
CC(C)(C)OC(=O)N1CC(Cc2nc(C(C)(C)C)no2)C1 | -5 | 0.87
O=C(Cc1cccs1)N(Cc1cnc2ccccn12)c1ccccc1 | -1 | 0.1
Clc1ccccc1-c1nnc(-c2ccc(-n3ccnc3)nc2)o1 | 0 | 0.03
O=C(c1ccc(F)cc1F)N1CCCN(CCC2OCCO2)CC1 | -16 | 2.06
O=C(NCC#CCN1CCc2ccccc2C1)c1ccc(=O)[nH]c1 | -9 | 0.98
COc1cccc2c1CC[C@]2(N)C(=O)NC1CCCC1 | -8 | 1.2
Cn1nc(-c2nc(C3CC3)no2)c2c1CCN(C(=O)Nc1ccccc1C(F)(F)F)C2 | 4 | -0.65
CCc1nn(C)c2c(=O)n(Cc3cccnc3)cnc12 | -3 | 0.41
CNC(=O)c1cnc(C=Cc2nccn2Cc2ccccc2)s1 | -14 | 2.67
C#CCN(C(=O)CN1C(=O)COc2ccccc21)C1CC1 | -14 | 2.07
Cc1[nH]c(=O)c(C#N)c(C)c1CCC(=O)N(C[C@H]1CCOC1)C1CC1 | -14 | 1.65
CCn1cc(C(=O)Nc2nnc(CCN(C)C)s2)cn1 | 0 | 0.05
CC(=O)c1ccc(N2N=C(C)C3=S2N(c2ccc(C(C)=O)cc2)N=C3C)cc1 | -31 | 3.64

Compound | % Inhibition [%] | Z score
C#CCCC1(CCC(=O)N2CCN(CCOC)[C@@H](C)C2)N=N1 | -10 | 1.19
Cc1c[nH]c(CN(C)C(=O)c2cc3c(Cl)cccc3[nH]2)n1 | -7 | 1.17
Cc1nn2c(nc1=O)-c1ccccc1NC2C1CCC(C)(C(=O)O)C1(C)C (stereo unspecified) | -6 | 0.87
CC(C)N(C)C(=O)c1c[nH]nc1-c1ccc(Cl)s1 | -27 | 2.72
O=C1[C@@H](N2CCc3ccc(F)cc32)CCN1C1CC1 | -5 | 0.74
COC(=O)[C@]1(NC(=O)c2cccc(Cl)c2F)C[C@@H](O)C1 | 1 | -0.17
O=C(CCc1nnn2c1CN(Cc1c[nH]c3ccccc13)CC2)N1CCCC1 | -15 | 2.81
C[C@@H](C(=O)Nc1nccs1)N(C)Cc1nccn1C(F)F | -6 | 0.57
O=C(NCCc1nc2ccccc2[nH]1)c1ccc(CN2C(=O)CNC2=O)cc1 | -20 | 2.68
CCN(C[C@H]1CCCO1)C(=O)c1c[nH]nc1-c1ccccc1 | -17 | 2.18
O=S(=O)(Nc1nnc[nH]1)c1csc2ccc(Cl)cc12 | 22 | -2.5
O=C(c1ccc2c(c1)OCO2)N(Cc1cccs1)C1CCOCC1 | -12 | 1.91
c1ccc(-c2csc(Cc3nc(-c4cccs4)no3)n2)cc1 | -16 | 2.09
CCN(CC(=O)Nc1c(F)cccc1F)C(=O)c1cccnc1O | -29 | 3.35
Cc1cnc(CN2C[C@]3(CCCN(C(=O)c4cccnn4)C3)CCC2=O)cn1 | -21 | 2.21
Cc1cc(C(=O)NCc2c[nH]c(=O)[nH]c2=O)c(C)n1C | -14 | 1.87
O=C1[C@@H]2C[C@H](O)CCN2C(=O)CN1Cc1cccc2[nH]ccc12 | -8 | 1.11
O=C(NC(Cc1ccccc1Cl)c1ccccc1)N1CC2CCC1C(CO)C2 (stereo unspecified) | -5 | 0.85
CN(C)C(=O)N1C[C@H]2CC[C@@H](C1)N(C(=O)c1cc(-c3ccccc3F)n[nH]1)C2 | -5 | 0.83
CC(=O)Oc1c(-c2ccc(NC(=O)c3ccccc3)cc2)c(-c2cccc(C)c2)nn1-c1ccc(C)cc1C | -23 | 2.2
CCOC(=O)C1=C(c2ccccc2)S/C(=C2/C(=S)C(C)(C)N(C(=O)C(F)(F)F)c3cc(C)c(C)cc32)S1 | -1 | 0.16

Compound | % Inhibition [%] | Z score
COCCN(CC(=O)N1CCc2sccc2[C@@H]1COc1ccc(C(C)C)cc1)C(=O)c1ccc(F)cc1 | -13 | 1.69
O=c1c2ccccc2ncn1Cc1nc(-c2cn3ccccc3n2)no1 | -11 | 1.42
O=C(c1cc(F)cc(Cl)c1)N1C[C@@H]2CC[C@@H](C2)C1 | -4 | 0.52
CCn1ccnc1[C@H](CCc1ccccc1)OC(=O)c1csc(COC)n1 | -10 | 1.17
O=C(c1cccn2c(=O)c3ccc(Cl)cc3nc12)N1CCN(c2ccccc2)CC1 | 5 | -0.55
Cc1ccn2c(=O)cc(CN(C)Cc3cscn3)nc2c1 | -2 | 0.36
CCn1ncc(NC(=O)Cn2cc(-c3ncc(F)c(NC)n3)cn2)n1 | -3 | 0.36
Cc1ccc(NC(=O)Nc2ccc(C)c(Oc3ccc(C#N)cc3)c2)cc1Oc1ccc(C#N)cc1 | 5 | -0.54
CCc1cccc(C)c1NC(=O)C(=O)c1cccn1C | 8 | -0.75
Cc1cc(S(=O)(=O)N(CCN(C)C)C2CCN(C)CC2)c(C)o1 | -16 | 1.43
Cc1nc(CN(C)C(=O)[C@@H]2CCC[C@H](O)C2)no1 | -19 | 2.51
CC[C@H]1c2cccn2CCN1C(=O)CCc1c(C)nn(C)c1C | -9 | 1.64
CCCC1CC(C(=O)N2CC(C)OC(CO)C2)CCO1 (stereo unspecified) | 2 | -0.28
CC(=O)C(C(C)=O)=C(N)NC(=O)c1ccccc1 | -13 | 1.41
O=C(N[C@H]1CCO[C@@H]1c1ccnn1-c1ccccc1)C1CC=CC1 | -2 | 0.26
COC(=O)C[C@H](C)NC(=O)Cn1ncc(=O)c2ccccc21 | 14 | -1.58
COCCOc1cccc(C(=O)N2CCC[C@H]2c2nc(-c3ccccc3)n[nH]2)c1 | -3 | 0.42
COc1cc(C(=O)NCCc2cnn(C)c2)nc(OC)n1 | 8 | -1.69
O=C(CCc1ccc(O)cc1)NCc1cc2n(n1)CCN(C1CCCCC1)C2 | 6 | -1.1
CCCc1nc(CN2CCc3ccc(F)cc3C2)no1 | -4 | 0.53
COc1ncccc1CNC(=O)C(=O)N1CCOCC1CC(C)O (stereo unspecified) | 0 | -0.07

Compound | % Inhibition [%] | Z score
O=C(CN1CCN(C(=O)c2ccccc2OC(F)F)CC1)NC1CCCC1 | -2 | 0.35
CCc1cc(N2CCN(C(=O)c3cc(OC)cc(OC)c3)CC2)nc2nncn12 | 6 | -0.85
COc1ccc(-c2n[nH]c(C3CC3)c2NC(=O)Nc2ccccc2F)c(OC)c1 | -2 | 0.32
Cc1ccc(-c2nc(CN(Cc3nccn3C)C(C)C)c(C)o2)cc1 | -7 | 1.14
CC(C)(CO)[C@H](CNC(=O)c1nc2cccnc2s1)c1ccccc1 | -2 | 0.27
O=C(CCCc1ccccc1)Nc1ccc2c(c1)OCO2 | 3 | -0.45
Cc1n[nH]c(C)c1C(=O)N[C@H]1CCc2n[nH]c(=O)cc2C1 | -9 | 1.48
Cc1ccccc1NC(=O)[C@H](C)N1CCC(C)(CN2CCOCC2)CC1 | -10 | 1.9
c1cc(CN[C@H]2CCc3ncnn3C2)c2[nH]ccc2c1 | 1 | -0.25
CC(NC(=O)C1CCN(C)C(=O)C1)c1ccc(F)cc1F (stereo unspecified) | -4 | 0.42
CCOC(=O)[C@](C)(C#N)c1ncccc1Cl | 0 | -0.07
CC(C)(O)CN1CCCN(C(=O)[C@@]2(C)CC2(Cl)Cl)CC1 | 1 | -0.12
COC(=O)CNC(=O)N1CCC2(CC1)CN(c1cccc(F)c1)[C@@H]2c1ccccc1 | 0 | 0
O=C(NCCc1cccs1)c1ccc(S(=O)(=O)N2CCOCC2)cc1 | -9 | 1.57
O=C(NC(c1ccc(F)cc1F)[C@H]1C[C@H](O)C1)c1cc(Cl)c[nH]c1=O (stereo partly specified) | 14 | -1.88
C#CCN[C@@H](CC(N)=O)C1CCCCC1 | -10 | 2
COc1ccc(NC(=O)c2sc3nccc(=O)n3c2C(=O)O)cc1 | -28 | 3.74
Cc1cccc(N2CCN(c3cccc(C)c3)C2c2cccnc2)c1 | -7 | 0.92
COc1nccnc1-c1cc(O)cc(CC[C@H]2CCCCN2)c1 | -23 | 3.42
O=C(N[C@H](C(=O)c1ccccc1)N1CCOCC1)c1ccco1 | 0 | 0.03
